The structures appear in SMILES notation. Hit rate of the full screen: of about 150,000 compounds, about 540 (0.36%) showed an effect of 50% or more. This is one part of the list.

The subject of this assay is Plasmodium falciparum. The assay can be described thus: Primary screen in NF54 nanoGlo assay, in single point, at 2uM, 72h; a lower Z score goes with more inhibition. The class given is functional, Erythrocyte. The settings on record: timepoint 72 hour.
In general, % Inhibition refers to the change of the read-out against control, counted positive when it falls. Turning to `COC(=O)NCc1ccc(CNC(=O)OC)cc1`, the “% Inhibition” value is recorded as -7% and the Z score was 0.82.
As to `CCOc1nc2cc(C(=O)OCC[C@H]3CCCCN3C(=O)c3cccn3C)ccc2[nH]1`, the “% Inhibition” value is listed as -3% and the Z score was determined as 0.46.
The corresponding values for `O=c1c(C(F)(F)F)nc2ccc(C(F)(F)F)cc2n1CC[C@H]1CCCO1` are -12% and 1.98.
The corresponding values for `CC(C)n1ccnc1CNC(C1CCCC1)C1CCCC1` are -14% and 1.21.
Turning to `CCN(CC)CCNC(=O)c1cnn(-c2ncc3c(n2)-c2ccccc2CCC3)c1COC`, the “% Inhibition” value turned out to be 14% and the Z score is listed as -1.89.
Consider `FC(F)(F)c1ccc([C@@H]2CCCCCN2)cc1`, for which the “% Inhibition” value came out at 3% and the Z score is given as -0.57.
Take `Cc1nc(CC(=O)N2CC(Oc3ccccc3Cl)C2)cs1`: the “% Inhibition” value is reported as -6% and the Z score is 0.89.
Taken in the same sequence, the figures for `Cc1noc(CNC(=O)Cc2csc(Nc3ncccn3)n2)n1` were 1% and -0.16.
The corresponding values for `C[C@H]1CN(C(=O)NCc2ccccc2F)CC(=O)N1` are -4% and 0.57.
The corresponding values for `CCN(CC)CCCNC(=O)CCc1cc2c(n1-c1ccc(C)cc1F)-c1ccccc1OC2` are -4% and 0.74.
For `COCCN(CC(F)(F)F)C(=O)[C@@H]1Cc2cccc(F)c2O1`, the “% Inhibition” value is listed as -12% and the Z score worked out at 1.23.
Taken in the same sequence, the figures for `Cc1n[nH]c(C)c1CNC(=O)N(C)Cc1ccsc1` were -1% and 0.13.
Taken in the same sequence, the figures for `Cc1ncc(C(=O)N2CC[C@](C)(O)[C@H](C)C2)cn1` were 1% and -0.13.
As for `Cc1cc(C)nc(N(C)CC(=O)NC(C)(C)C)n1`, the “% Inhibition” value is recorded as -10% and the Z score stood at 1.43.
`CCCCNCCOc1ccc(OC)cc1`: the “% Inhibition” value was found to be 10% and the Z score is given as -1.32.
For `Nc1nnc(C2CCN(C(=O)Nc3ccc(Cl)cc3)CC2)o1`, the “% Inhibition” value is recorded as 8% and the Z score is given as -0.99.
Taken in the same sequence, the figures for `COc1cc2ccncc2cc1OCCOc1ccccc1` were 2% and -0.24.
Taken in the same sequence, the figures for `O=C(c1cccc(Cl)c1)N(CC(F)(F)F)C1CCOCC1` were 1% and -0.14.
Taken in the same sequence, the figures for `CC[C@H](C)n1nnc2cc(S(=O)(=O)N3CCC(C(=O)Nc4ccc(C)cc4)CC3)ccc21` were -17% and 2.37.
Regarding `NC(=O)c1csc(N2CCC(CO)(C[C@H]3CCCCO3)CC2)n1`, the “% Inhibition” value is given as -9% and the Z score was 1.24.
Turning to `CC(=O)N[C@@H](Cc1ccccc1)c1nnc(N2CCCCCC2)o1`, the “% Inhibition” value is 6% and the Z score is reported as -0.71.
The corresponding values for `O=c1[nH]c2ccsc2c(=O)n1CCc1ccccc1` are 33% and -4.74.
Taken in the same sequence, the figures for `Cn1cnn(CC(=O)Nc2nc3ccccc3[nH]2)c1=O` were -6% and 0.88.
Taken in the same sequence, the figures for `CCC(=O)c1ccc(OCCNC)cc1` were -10% and 1.37.
As to `Cn1c(CCNC(=O)C2CC2C2CCC2)nc2ccc(F)cc21` (configuration not stated), the “% Inhibition” value is 27% and the Z score is listed as -3.09.
As for `CC(C)c1noc(Cn2cc([C@H](O)c3ccccc3)cn2)n1`, the “% Inhibition” value is -7% and the Z score worked out at 0.91.
The corresponding values for `Cn1ccnc1COC(=O)c1cccc(Nc2cnccn2)c1` are -12% and 2.05.
Taken in the same sequence, the figures for `CCC(Oc1ccc2c(c1)C(c1ccccc1)N(C(=O)CC(C)C)CC2)C(=O)N1CCOCC1` (configuration not stated) were -13% and 1.25.
The corresponding values for `COCCc1noc(C2CN(S(=O)(=O)c3cccc(F)c3)C2)n1` are -12% and 1.55.
Turning to `Cc1ccc([C@H](C)N(C)Cc2noc(-c3cccs3)n2)s1`, the “% Inhibition” value is reported as -12% and the Z score is recorded as 1.56.
Taken in the same sequence, the figures for `C[C@@H](CC(=O)NC(C)(C)CO)Cc1ccc(Cl)cc1` were -14% and 1.58.
The corresponding values for `CCn1cc(S(=O)(=O)NCCc2ncc(C)n2C2CC2)cn1` are -10% and 1.78.
The corresponding values for `CN(C)C[C@@H](O)CNC1CCC(C(F)(F)F)CC1` (some centres not stated) are -3% and 0.35.
As for `Cc1noc(COC(=O)c2cnn(-c3ccc(F)cc3F)c2)n1`, the “% Inhibition” value was -9% and the Z score is 1.41.
Taken in the same sequence, the figures for `CC(C)(C)CC(C)(C)NC(=O)c1ccc(C#N)cc1` were -6% and 0.66.
The corresponding values for `COc1cc(F)c([C@H](C)NCc2cnc(C3OCCO3)s2)cc1OC` are -3% and 0.34.
Taken in the same sequence, the figures for `O=C(NC1CCCC1)c1cc2ccccc2o1` were -11% and 2.11.
`Cc1nnc(NC(=O)[C@H](Oc2cccc(Br)c2)c2ccccc2)s1`: the “% Inhibition” value is reported as 2% and the Z score was -0.48.
Taken in the same sequence, the figures for `Cc1cc(C)c(NS(=O)(=O)c2ccc3c(c2)-c2oncc2CO3)c(C)c1` were -7% and 1.28.
The corresponding values for `Cc1cc(=O)n(CCN(Cc2cocn2)Cc2cocn2)c(=O)[nH]1` are 2% and -0.35.
The corresponding values for `Cc1cccc(CN2CCN(C(=O)c3cc(C)n[nH]3)[C@@H](C)C2=O)c1` are -9% and 1.2.
On to `C#CCN(Cc1cc(OC)ccc1OC[C@@H](O)CN1CCC(O)CC1)C1CCCCC1`, for which the “% Inhibition” value was 7% and the Z score is -0.78.
The corresponding values for `CC[C@H](Nc1ccc2oc(N(C)C)nc2c1)C(=O)OC` are -11% and 1.1.
With `CCN(CC)[C@H]1CCOC2(CCN(C(=O)CCc3ccc(OC)cc3)CC2)C1`, the “% Inhibition” value is -8% and the Z score is 1.31.
Taken in the same sequence, the figures for `CC(C)(C)Cc1ncc(C(=O)N[C@H]2CCO[C@@H]2c2cc[nH]n2)s1` were -7% and 1.16.
Taken in the same sequence, the figures for `CN(C)c1cccc(C(=O)Nc2cccc(-c3nnc4n3CCCC4)c2)c1` were -8% and 1.39.
In the case of `CCCC12CCCN1C(=O)N(C1CCN(C(=O)OCC)C1)C2=O` (configuration not stated), the “% Inhibition” value is recorded as -7% and the Z score is recorded as 1.1.
Taken in the same sequence, the figures for `COCCC1(CNC(=O)Nc2cc(N(C)C)n3nc(C)cc3n2)CC1` were 6% and -0.81.
Taken in the same sequence, the figures for `O=C1CNCCN1Cc1ccc(Cl)cc1` were 1% and -0.15.
As to `COC(=O)c1nc(NC(=O)[C@H]2CC(=O)OC2(C)C)sc1C`, the “% Inhibition” value is listed as -13% and the Z score turned out to be 1.95.
The corresponding values for `C#CCN(C)[C@@H](CO)c1ccc(OC)cc1` are -5% and 0.73.
`COC(=O)C(C)(C)CNC(=O)N1CCC[C@H](C)C1`: the “% Inhibition” value was -10% and the Z score is 1.48.
On to `COc1ccc(OC)c(CNc2nc(-c3ccccc3)no2)c1`, for which the “% Inhibition” value is reported as -25% and the Z score is reported as 2.18.
The corresponding values for `Cc1csc([C@@H](NS(=O)(=O)c2ccccc2Cl)C2CC2)n1` are 6% and -1.09.
The corresponding values for `COCCC1(CNc2ccc(N3CCCS3(=O)=O)cn2)CC1` are -6% and 0.86.
The corresponding values for `CCc1csc(NC2CCS(=O)(=O)CC2)n1` are -6% and 1.2.
In the case of `CCc1nnc(NC(=O)CN(CCOC)C(=O)OC(C)(C)C)s1`, the “% Inhibition” value was -7% and the Z score turned out to be 1.21.
Taken in the same sequence, the figures for `CCN1CC[C@H](NC(=O)N(Cc2ccc(OC)cc2OC)C2CCCC2)C1` were -2% and 0.31.
In the case of `Cn1nccc1-c1cccc(-c2noc(-c3ccccn3)n2)c1`, the “% Inhibition” value is -10% and the Z score was determined as 1.79.
The corresponding values for `COCCCNC(=O)C1CN(S(=O)(=O)C2CC2)C1` are -10% and 1.53.
The corresponding values for `COc1ccc(C(c2c(C)nn(C)c2Nc2ccccc2)c2c(C)nn(C)c2Nc2ccccc2)cc1` are 19% and -2.93.
Taken in the same sequence, the figures for `Cc1ccc(Br)c2[nH]c(C(=O)N[C@@H]3C[C@H]4CC[C@@H]3O4)cc12` were 2% and -0.32.
With `Cc1c(Cl)cccc1NC(=O)N1CCN(c2ccc(-c3noc(C(C)C)n3)cc2)CC1`, the “% Inhibition” value was -4% and the Z score is 0.87.
Turning to `Clc1ccc([C@@H]2CN(c3nccc4[nH]cnc34)CCO2)cc1`, the “% Inhibition” value is given as -8% and the Z score came out at 1.34.
Taken in the same sequence, the figures for `Cc1cnn([C@H]2CCCN(Cc3cc4ccccc4[nH]c3=O)C2)c1` were -6% and 0.74.
With `NS(=O)(=O)c1ccc(C(=O)NC[C@H]2CCCOC2)cc1Cl`, the “% Inhibition” value is -8% and the Z score came to 0.87.
In the case of `O=C(CNC(=O)N1C[C@H]2CCCC[C@H]2C1)N1CCN(c2ccccc2)CC1`, the “% Inhibition” value was -15% and the Z score is recorded as 1.5.
Taken in the same sequence, the figures for `CCc1nc(CNC(=O)Cc2sc(N)nc2C)cs1` were -12% and 1.56.
The corresponding values for `CCN1C(=O)C2C3CC4C(OC1(C(C)C)C42)C3O` (configuration not stated) are 3% and -0.46.
The corresponding values for `CC(C)[C@@H]1CN(c2nnc(-c3ccc(F)cc3Br)n2C)CCO1` are -10% and 1.76.
As for `Cc1cc(C(=O)CN(Cc2cccc(Cl)c2)C(C)C)c(C)n1[C@H]1CCS(=O)(=O)C1`, the “% Inhibition” value was determined as 0% and the Z score is given as -0.07.
The corresponding values for `CCCc1nc(N2CCN(C(=O)[C@H](CC)c3ccccc3)CC2)c2c(C)nn(-c3ccc(F)cc3)c2n1` are -3% and 0.49.
The corresponding values for `COCC1(CNc2ncc(S(=O)(=O)NCCO)cc2C(F)(F)F)CCC1` are -8% and 1.07.
The corresponding values for `CN(CC#N)Cc1cc(Br)ccc1Cl` are -15% and 1.99.
As for `COC[C@H]1CCCN(C(=O)Nc2cnn(CC(F)(F)F)c2)C1`, the “% Inhibition” value is 7% and the Z score was -1.04.
The corresponding values for `Fc1ccc(OC(F)F)cc1-c1noc([C@@H]2COCCN2C2CCCC2)n1` are -10% and 1.28.
Taken in the same sequence, the figures for `CCOc1ccc(Cc2noc3c2C(=O)C[C@@H](c2ccccc2)C3)cc1OCC` were -6% and 0.83.
`CC(C)Cc1n[nH]c(NC(=O)CCCc2nnc3ccccn23)n1`: the “% Inhibition” value is reported as 28% and the Z score is on record as -3.14.
Consider `CCS(=O)(=O)c1ccc2oc(-c3cc(C)ccc3OS(=O)(=O)c3ccc(C)cc3)nc2c1`, for which the “% Inhibition” value was -8% and the Z score is reported as 1.57.
The corresponding values for `Cc1nc(C)c(C(=O)N(Cc2ccncc2)C2CC2)o1` are -3% and 0.41.
Taken in the same sequence, the figures for `CCc1nccn1CC(=O)N1CCC[C@@]2(CCC(=O)N(CC3CC3)C2)C1` were 2% and -0.34.
The corresponding values for `N#Cc1ccc(Cl)cc1NC(=O)C(=O)N1CCN(c2ccccc2F)CC1` are 10% and -1.64.
For `COc1cc(CC2(CCC(=O)N3CCCC(C)C3)CCC(=O)N2)ccc1F` (configuration not stated), the “% Inhibition” value is on record as -1% and the Z score was determined as 0.23.
On to `CCCC(C)C1CCCN1c1cc(-n2cccn2)nc(N)n1` (configuration not stated), for which the “% Inhibition” value is listed as 1% and the Z score is reported as -0.2.
The corresponding values for `CCOc1ccc2nc(N3CCCCCC3)sc2c1` are -10% and 1.3.
On to `O=S(=O)(c1cccc2nsnc12)N1C[C@H](O)[C@@H](F)C1`, for which the “% Inhibition” value is on record as 5% and the Z score was -0.89.

The record behind these values is ChEMBL document CHEMBL4888484, “Replenishing the malaria drug discovery pipeline: Screening and hit evaluation of the MMV Hit Generation Library 1 (HGL1) against asexual blood stage Plasmodium falciparum ,using a nano luciferase reporter read-out” (2022).
